{"source": "the supplement of paper PMC8728848", "binders": {"B1": {"name": "CML1 (Coprinopsis cinerea) (protein)", "chain": "MAIFHTGSELFIITRGPGKLTLLTWGGLNNLRSVIGAIPTENTGVTKWAVSFSHNYTRFSFIWEGQGEACYQIGNGLTRSPVGRSWSSSSTIHWGSSTVITEDVTSVVPGAVNRDKVTTAYALPDNL"}}, "experiment_in_all_cases": "glycan array binding signal (z-score within array); higher = stronger binding", "details_in_all_cases": "glycan notation: IUPAC condensed, linker removed", "key": {"[1]": {"molecular_target": "Fuc(a1-2)Gal6S(b1-3)GlcNAc", "outline": "(§1)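 The binding signal is a Z-score computed within each array. Data were drawn from 3228 arrays in the Consortium for Functional Glycomics database, restricted to those with a known protein sequence. Scores were averaged over arrays of the same protein sequence at different concentrations or buffers, and over linkers, and negative values can be taken as non-binding.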"}, "[2]": {"molecular_target": "Fuc(a1-2)Gal6S(b1-3)GlcNAc6S", "outline": "as §1"}, "Fuc(a1-2)Gal6S(b1-4)Glc": {"molecular_target": "Fuc(a1-2)Gal6S(b1-4)Glc", "outline": "as §1"}, "[3]": {"molecular_target": "Fuc(a1-2)Gal6S(b1-4)Glc6S", "outline": "as §1"}, "Fuc(a1-2)[Gal(a1-3)]Gal": {"molecular_target": "Fuc(a1-2)[Gal(a1-3)]Gal", "outline": "as §1"}, "[4]": {"molecular_target": "Fuc(a1-2)[Gal(a1-3)]Gal(b1-3)GalNAc", "outline": "as §1"}, "[5]": {"molecular_target": "Fuc(a1-2)[Gal(a1-3)]Gal(b1-3)GalNAc(b1-3)Gal(a1-4)Gal(b1-4)Glc", "outline": "as §1"}, "[6]": {"molecular_target": "Fuc(a1-2)[Gal(a1-3)]Gal(b1-3)GlcNAc", "outline": "as §1"}, "[7]": {"molecular_target": "Fuc(a1-2)[Gal(a1-3)]Gal(b1-3)GlcNAc(b1-2)Man(a1-3)[Fuc(a1-2)[Gal(a1-3)]Gal(b1-3)GlcNAc(b1-2)Man(a1-6)]Man(b1-4)GlcNAc(b1-4)GlcNAc", "outline": "as §1"}, "[8]": {"molecular_target": "Fuc(a1-2)[Gal(a1-3)]Gal(b1-3)GlcNAc(b1-2)Man(a1-3)[Fuc(a1-2)[Gal(a1-3)]Gal(b1-3)GlcNAc(b1-2)Man(a1-6)]Man(b1-4)GlcNAc(b1-4)[Fuc(a1-6)]GlcNAc", "outline": "as §1"}, "[9]": {"molecular_target": "Fuc(a1-2)[Gal(a1-3)]Gal(b1-3)GlcNAc(b1-3)GalNAc", "outline": "as §1"}, "[10]": {"molecular_target": "Fuc(a1-2)[Gal(a1-3)]Gal(b1-3)GlcNAc(b1-6)GalNAc", "outline": "as §1"}, "[11]": {"molecular_target": "Fuc(a1-2)[Gal(a1-3)]Gal(b1-4)Glc", "outline": "as §1"}, "[12]": {"molecular_target": "Fuc(a1-2)[Gal(a1-3)]Gal(b1-4)GlcNAc", "outline": "as §1"}, "[13]": {"molecular_target": "Fuc(a1-2)[Gal(a1-3)]Gal(b1-4)GlcNAc(b1-2)Man", "outline": "as §1"}, "[14]": {"molecular_target": "Fuc(a1-2)[Gal(a1-3)]Gal(b1-4)GlcNAc(b1-2)Man(a1-3)[Fuc(a1-2)[Gal(a1-3)]Gal(b1-4)GlcNAc(b1-2)Man(a1-6)]Man(b1-4)GlcNAc(b1-4)GlcNAc", "outline": "as §1"}, "[15]": {"molecular_target": "Fuc(a1-2)[Gal(a1-3)]Gal(b1-4)GlcNAc(b1-2)Man(a1-3)[Fuc(a1-2)[Gal(a1-3)]Gal(b1-4)GlcNAc(b1-2)Man(a1-6)]Man(b1-4)GlcNAc(b1-4)[Fuc(a1-6)]GlcNAc", "outline": "as §1"}, "[16]": {"molecular_target": "Fuc(a1-2)[Gal(a1-3)]Gal(b1-4)GlcNAc(b1-3)GalNAc", "outline": "as §1"}, "[17]": {"molecular_target": "Fuc(a1-2)[Gal(a1-3)]Gal(b1-4)GlcNAc(b1-3)[Fuc(a1-2)[Gal(a1-3)]Gal(b1-4)GlcNAc(b1-6)]GalNAc", "outline": "as §1"}, "[18]": {"molecular_target": "Fuc(a1-2)[Gal(a1-3)]Gal(b1-4)GlcNAc(b1-6)GalNAc", "outline": "as §1"}, "[19]": {"molecular_target": "Fuc(a1-2)[Gal(a1-3)]Gal(b1-4)[Fuc(a1-3)]Glc", "outline": "as §1"}, "[20]": {"molecular_target": "Fuc(a1-2)[Gal(a1-3)]Gal(b1-4)[Fuc(a1-3)]GlcNAc", "outline": "as §1"}, "[21]": {"molecular_target": "Fuc(a1-2)[Gal(a1-3)]Gal(b1-4)[Fuc(a1-3)]GlcNAc(b1-3)GalNAc", "outline": "as §1"}, "[22]": {"molecular_target": "Fuc(a1-2)[Gal(a1-4)]Gal(b1-4)GlcNAc", "outline": "as §1"}, "[23]": {"molecular_target": "Fuc(a1-2)[GalNAc(a1-3)]Gal", "outline": "as §1"}, "[24]": {"molecular_target": "Fuc(a1-2)[GalNAc(a1-3)]Gal(b1-3)GalNAc(a1-3)[Fuc(a1-2)]Gal(b1-4)GlcNAc", "outline": "as §1"}, "[25]": {"molecular_target": "Fuc(a1-2)[GalNAc(a1-3)]Gal(b1-3)GalNAc(b1-3)Gal(a1-4)Gal(b1-4)Glc", "outline": "as §1"}, "[26]": {"molecular_target": "Fuc(a1-2)[GalNAc(a1-3)]Gal(b1-3)GlcNAc", "outline": "as §1"}, "[27]": {"molecular_target": "Fuc(a1-2)[GalNAc(a1-3)]Gal(b1-3)GlcNAc(b1-2)Man(a1-3)[Fuc(a1-2)[GalNAc(a1-3)]Gal(b1-3)GlcNAc(b1-2)Man(a1-6)]Man(b1-4)GlcNAc(b1-4)GlcNAc", "outline": "as §1"}, "[28]": {"molecular_target": "Fuc(a1-2)[GalNAc(a1-3)]Gal(b1-3)GlcNAc(b1-2)Man(a1-3)[Fuc(a1-2)[GalNAc(a1-3)]Gal(b1-3)GlcNAc(b1-2)Man(a1-6)]Man(b1-4)GlcNAc(b1-4)[Fuc(a1-6)]GlcNAc", "outline": "as §1"}, "[29]": {"molecular_target": "Fuc(a1-2)[GalNAc(a1-3)]Gal(b1-3)GlcNAc(b1-3)GalNAc", "outline": "as §1"}, "[30]": {"molecular_target": "Fuc(a1-2)[GalNAc(a1-3)]Gal(b1-3)GlcNAc(b1-6)GalNAc", "outline": "as §1"}, "[31]": {"molecular_target": "Fuc(a1-2)[GalNAc(a1-3)]Gal(b1-4)Glc", "outline": "as §1"}, "[32]": {"molecular_target": "Fuc(a1-2)[GalNAc(a1-3)]Gal(b1-4)GlcNAc", "outline": "as §1"}, "[33]": {"molecular_target": "Fuc(a1-2)[GalNAc(a1-3)]Gal(b1-4)GlcNAc(b1-2)Man", "outline": "as §1"}, "[34]": {"molecular_target": "Fuc(a1-2)[GalNAc(a1-3)]Gal(b1-4)GlcNAc(b1-2)Man(a1-3)[Fuc(a1-2)[GalNAc(a1-3)]Gal(b1-4)GlcNAc(b1-2)Man(a1-6)]Man(b1-4)GlcNAc(b1-4)GlcNAc", "outline": "as §1"}, "[35]": {"molecular_target": "Fuc(a1-2)[GalNAc(a1-3)]Gal(b1-4)GlcNAc(b1-2)Man(a1-3)[Fuc(a1-2)[GalNAc(a1-3)]Gal(b1-4)GlcNAc(b1-2)Man(a1-6)]Man(b1-4)GlcNAc(b1-4)[Fuc(a1-6)]GlcNAc", "outline": "as §1"}, "[36]": {"molecular_target": "Fuc(a1-2)[GalNAc(a1-3)]Gal(b1-4)GlcNAc(b1-3)Gal(b1-4)GlcNAc", "outline": "as §1"}, "[37]": {"molecular_target": "Fuc(a1-2)[GalNAc(a1-3)]Gal(b1-4)GlcNAc(b1-3)Gal(b1-4)GlcNAc(b1-3)Gal(b1-4)GlcNAc", "outline": "as §1"}, "[38]": {"molecular_target": "Fuc(a1-2)[GalNAc(a1-3)]Gal(b1-4)GlcNAc(b1-3)GalNAc", "outline": "as §1"}, "[39]": {"molecular_target": "Fuc(a1-2)[GalNAc(a1-3)]Gal(b1-4)GlcNAc(b1-3)[Fuc(a1-2)[GalNAc(a1-3)]Gal(b1-4)GlcNAc(b1-6)]GalNAc", "outline": "as §1"}, "[40]": {"molecular_target": "Fuc(a1-2)[GalNAc(a1-3)]Gal(b1-4)GlcNAc(b1-6)GalNAc", "outline": "as §1"}, "[41]": {"molecular_target": "Fuc(a1-2)[GalNAc(a1-3)]Gal(b1-4)[Fuc(a1-3)]GlcNAc", "outline": "as §1"}, "[42]": {"molecular_target": "Fuc(a1-2)[GalNAc(a1-3)]Gal(b1-4)[Fuc(a1-3)]GlcNAc(b1-3)GalNAc", "outline": "as §1"}, "[43]": {"molecular_target": "Fuc(a1-2)[GalNAc(a1-4)]Gal(b1-4)GlcNAc", "outline": "as §1"}}, "note": "Some of the results follow.", "data": [{"binder": "B1", "values": [{"measurement": "glycan array binding signal (z-score)", "setting": "[1]", "value": 3.23}, {"measurement": "glycan array binding signal (z-score)", "setting": "[2]", "value": 3.67}, {"measurement": "glycan array binding signal (z-score)", "setting": "Fuc(a1-2)Gal6S(b1-4)Glc", "value": 1.17}, {"measurement": "glycan array binding signal (z-score)", "setting": "[3]", "value": 1.75}, {"measurement": "glycan array binding signal (z-score)", "setting": "Fuc(a1-2)[Gal(a1-3)]Gal", "value": -0.32}, {"measurement": "glycan array binding signal (z-score)", "setting": "[4]", "value": -0.003}, {"measurement": "glycan array binding signal (z-score)", "setting": "[5]", "value": -0.267}, {"measurement": "glycan array binding signal (z-score)", "setting": "[6]", "value": 3.51}, {"measurement": "glycan array binding signal (z-score)", "setting": "[7]", "value": 2.99}, {"measurement": "glycan array binding signal (z-score)", "setting": "[8]", "value": 1.07}, {"measurement": "glycan array binding signal (z-score)", "setting": "[9]", "value": 1.78}, {"measurement": "glycan array binding signal (z-score)", "setting": "[10]", "value": 2.21}, {"measurement": "glycan array binding signal (z-score)", "setting": "[11]", "value": -0.311}, {"measurement": "glycan array binding signal (z-score)", "setting": "[12]", "value": -0.352}, {"measurement": "glycan array binding signal (z-score)", "setting": "[13]", "value": -0.329}, {"measurement": "glycan array binding signal (z-score)", "setting": "[14]", "value": -0.242}, {"measurement": "glycan array binding signal (z-score)", "setting": "[15]", "value": -0.336}, {"measurement": "glycan array binding signal (z-score)", "setting": "[16]", "value": -0.341}, {"measurement": "glycan array binding signal (z-score)", "setting": "[17]", "value": -0.341}, {"measurement": "glycan array binding signal (z-score)", "setting": "[18]", "value": -0.339}, {"measurement": "glycan array binding signal (z-score)", "setting": "[19]", "value": -0.333}, {"measurement": "glycan array binding signal (z-score)", "setting": "[20]", "value": -0.34}, {"measurement": "glycan array binding signal (z-score)", "setting": "[21]", "value": -0.284}, {"measurement": "glycan array binding signal (z-score)", "setting": "[22]", "value": -0.314}, {"measurement": "glycan array binding signal (z-score)", "setting": "[23]", "value": -0.333}, {"measurement": "glycan array binding signal (z-score)", "setting": "[24]", "value": -0.319}, {"measurement": "glycan array binding signal (z-score)", "setting": "[25]", "value": -0.352}, {"measurement": "glycan array binding signal (z-score)", "setting": "[26]", "value": 2.92}, {"measurement": "glycan array binding signal (z-score)", "setting": "[27]", "value": 1.14}, {"measurement": "glycan array binding signal (z-score)", "setting": "[28]", "value": 0.392}, {"measurement": "glycan array binding signal (z-score)", "setting": "[29]", "value": 0.251}, {"measurement": "glycan array binding signal (z-score)", "setting": "[30]", "value": 1.59}, {"measurement": "glycan array binding signal (z-score)", "setting": "[31]", "value": -0.315}, {"measurement": "glycan array binding signal (z-score)", "setting": "[32]", "value": -0.358}, {"measurement": "glycan array binding signal (z-score)", "setting": "[33]", "value": -0.348}, {"measurement": "glycan array binding signal (z-score)", "setting": "[34]", "value": -0.269}, {"measurement": "glycan array binding signal (z-score)", "setting": "[35]", "value": -0.355}, {"measurement": "glycan array binding signal (z-score)", "setting": "[36]", "value": -0.346}, {"measurement": "glycan array binding signal (z-score)", "setting": "[37]", "value": -0.31}, {"measurement": "glycan array binding signal (z-score)", "setting": "[38]", "value": -0.337}, {"measurement": "glycan array binding signal (z-score)", "setting": "[39]", "value": -0.348}, {"measurement": "glycan array binding signal (z-score)", "setting": "[40]", "value": -0.357}, {"measurement": "glycan array binding signal (z-score)", "setting": "[41]", "value": -0.359}, {"measurement": "glycan array binding signal (z-score)", "setting": "[42]", "value": -0.335}, {"measurement": "glycan array binding signal (z-score)", "setting": "[43]", "value": -0.305}]}]}
